# PubChem BioAssay AID488969 (Vanderbilt High Throughput Screening Facility, 2010)
# Over roughly 110,000 compounds, “z-score” has its median near -0.1; the highest 2% begin near 2. The list shows a part of the results. Activity calls are given as the source filed them.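 Rule for the calls: active = z-score in the third read window above 3 or below -3; inactive = the rest.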
# Target: Metabotropic glutamate receptor 8 (Rattus norvegicus) (UniProt P70579)
# Test: mGluR8 Gi/Go-coupled signaling modulation – cell-based, rat, thallium flux, HTS, primary screen (AID 488969)
# Details: HEK293 rat mGluR8, GIRK (G protein-gated inwardly rectifying potassium channel) thallium flux, FluoZin2; at 10 µM; stronger effect = higher value; submaximal glutamate (EC20) added with thallium
# UniProt P70579, sequence (P70579 whole entry, looked up): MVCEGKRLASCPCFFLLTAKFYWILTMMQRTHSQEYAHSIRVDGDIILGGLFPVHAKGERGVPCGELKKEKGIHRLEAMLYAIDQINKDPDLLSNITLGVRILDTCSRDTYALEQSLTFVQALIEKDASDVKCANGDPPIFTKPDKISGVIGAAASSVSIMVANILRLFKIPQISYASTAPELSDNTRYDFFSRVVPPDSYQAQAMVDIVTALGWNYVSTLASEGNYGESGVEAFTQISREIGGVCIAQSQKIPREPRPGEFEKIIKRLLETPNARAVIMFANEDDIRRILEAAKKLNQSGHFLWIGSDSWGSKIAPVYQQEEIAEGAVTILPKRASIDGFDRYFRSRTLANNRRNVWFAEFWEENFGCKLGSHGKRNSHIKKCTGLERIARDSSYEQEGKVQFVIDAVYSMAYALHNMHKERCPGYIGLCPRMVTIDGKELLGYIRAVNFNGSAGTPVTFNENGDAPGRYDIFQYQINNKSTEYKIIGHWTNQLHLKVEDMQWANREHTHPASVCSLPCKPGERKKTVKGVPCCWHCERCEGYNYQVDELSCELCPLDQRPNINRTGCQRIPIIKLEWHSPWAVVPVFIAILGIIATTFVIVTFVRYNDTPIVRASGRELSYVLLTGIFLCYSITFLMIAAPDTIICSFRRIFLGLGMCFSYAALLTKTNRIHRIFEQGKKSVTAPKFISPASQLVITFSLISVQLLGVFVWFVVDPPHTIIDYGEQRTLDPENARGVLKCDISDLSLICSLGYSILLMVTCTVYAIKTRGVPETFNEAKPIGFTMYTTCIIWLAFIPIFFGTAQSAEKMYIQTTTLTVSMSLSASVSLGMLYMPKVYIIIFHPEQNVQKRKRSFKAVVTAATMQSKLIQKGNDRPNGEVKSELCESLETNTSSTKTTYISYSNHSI
row,Structure (SMILES),z-score
1,COc1ccc(OC)c(-c2cc(C(=O)Nc3c(C)nn(Cc4ccc(Cl)cc4)c3C)no2)c1,-1.03
2,O=C1c2cnc3nc(SCc4cccc(Cl)c4)nn3c2CC2c3ccccc3CCN12 (configuration not stated),0.456
3,O=C(O)c1ccc2c(c1)C(=O)N(c1ccc(Cl)cn1)C2=O,-1.75
4,CCn1c(C)c(C2=CCN(S(=O)(=O)c3ccc(C)cc3)CC2)c2ccccc21,0.0891
5,CCn1cc(C(=O)O)c(=O)c2cc(F)c(N/N=C/c3ccccc3[N+](=O)[O-])cc21,-0.392
6,CC1CCCN(c2ccc(C(=O)OCC(=O)N3c4ccccc4Sc4ccccc43)cc2[N+](=O)[O-])C1 (configuration not stated),-0.269
7,COc1ccc(C(=O)COc2ccccc2N2C(=O)C3C4C=CC(C4)C3C2=O)cc1 (configuration not stated),-0.531
8,CCC(=O)NC(NC(=O)CC)C(Cl)Cl,0.0473
9,CCSC1(SCC)N=C(N)C2(C#N)C(c3ccccc3)NC3=C(CCC3)C12C#N (configuration not stated),0.00871
10,CC(Sc1nc2c(c(=O)n(C)c(=O)n2C)n1Cc1cc2c(cc1Cl)OCO2)C(=O)O (configuration not stated),-0.0886
11,O=C1CCCC2=C1C(c1cccc(Br)c1)n1nc(-c3ccco3)nc1N2 (configuration not stated),0.00784
12,N/C(=N\OC(=O)c1ccc(Cl)cc1Cl)c1ccccc1,-0.281
13,O=C(Cc1cccc(C(F)(F)F)c1)NCc1ccc(Cl)cc1,-0.22
14,CCNC(=O)NC(=O)C(C)OC(=O)c1ccc(-n2nc(SC)sc2=S)cc1 (configuration not stated),-0.00926
15,Cc1nc(NC(=O)c2ccccc2)sc1-c1csc(NCc2ccco2)n1,0.00275
16,COc1ccccc1-n1cnc2cc(NCc3ccccn3)ccc21,-0.00719
17,CSc1nncc(/C(C)=N/O)n1,0.701
18,O=C(Nc1nc2c(s1)COc1ccccc1-2)c1cccs1,-0.346
19,Nc1nc(SCC(=O)N2CCCC2)[nH]c(=O)c1NC(=O)c1ccco1,0.975
20,Cn1c2ccc(Cl)cc2c2nc3ccccc3nc21,0.699
21,COc1ccc(Br)cc1C1NC(=O)NC(C)=C1C(=O)N(C)C (configuration not stated),0.177
22,Cc1ccc(SCc2nc(N)nc(Nc3ccccc3C)n2)c(C)c1,0.274

row,Structure (SMILES),z-score
1,O=C(NCCNC(=O)c1cc(OCC(F)(F)F)ccc1OCC(F)(F)F)Nc1ccc(Cl)cc1,0.298
2,Cc1ccc(OCC(=O)NNC(=O)C2CCN(c3nc(C)cc(C)n3)CC2)cc1,-0.168
3,CCN1c2ccccc2-c2nc3ccccc3n2C1c1ccco1 (configuration not stated),-1.86
4,CCOC(=O)CNC(c1ccccc1)c1cc(Br)ccc1NC(=O)OCC (configuration not stated),-1.5
5,CC(C)CCn1c(SCC(=O)OCn2nnc3ccccc3c2=O)nc2ccccc2c1=O,0.629
6,COc1ccc(S(N)(=O)=O)cc1C(=O)NCCCN1CCN(c2ccc(C)cc2)CC1,0.969
7,Cc1ccc(C)c(NC(=S)NC(NC(=O)Cc2ccccc2)C(Cl)(Cl)Cl)c1 (configuration not stated),-0.24
8,COc1cc2c(cc1NC(=O)COc1ccccc1OC)oc1ccccc12,active: 5.54
9,COc1ccccc1NC(=S)NNC(=O)c1ccccc1,-0.162
10,Cc1cccc(N(C)C(=O)COc2cc(=O)n(C)c3ccccc23)c1,0.0876
11,COc1ccccc1Cn1c(=O)c2ccccc2n2c(Sc3ncnc4sccc34)nnc12,-0.65
12,Cc1ccc2ccccc2c1Cn1c(-n2ccnc2)nc2c1c(=O)n(C)c(=O)n2C,0.134
13,O=C1CC(c2ccccc2Cl)CC(O)=C1C=Nc1ccccc1 (configuration not stated),0.0348
14,Cc1nc(NC(=O)C(Cl)Cl)sc1C(=O)N(C)C,-0.0454
15,CCCOc1cc(C)c(S(=O)(=O)n2ccc(C)n2)cc1C,-0.146
16,CC(NC(=O)C1CCCN1S(=O)(=O)c1cccc2cccnc12)c1ccccc1 (configuration not stated),0.123
17,CSc1nnc(-c2ccncc2)n1CCCN1CCCC1=O,-0.726
18,CCc1ccc(-c2cc(C(F)(F)F)n3nc(C(=O)Nc4cnn(Cc5ccccc5C)c4)cc3n2)s1,-0.217
19,Cc1ccccc1NC1=NS(=O)(=O)c2ccccc21,0.174
20,CCOC(=O)C1=C(C)N=c2sc(=C(C)C)c(=O)n2C1c1ccc(N(C)C)cc1 (configuration not stated),0.0897
21,COc1ccc(C)cc1S(=O)(=O)N(CC(=O)Nc1cccc([N+](=O)[O-])c1)c1ccc(C)cc1,-0.677
22,CCOC(=O)c1oc2cc(OCC(N)=O)ccc2c(=O)c1-c1ccc(OC)c(OC)c1,-0.565

row,Structure (SMILES),z-score
1,COC(=O)Nc1nnc(Cc2ccccc2)s1,-0.412
2,CN(CC(=O)NCc1ccncc1)S(=O)(=O)c1ccc(F)cc1,0.309
3,CC(=O)Oc1ccc(N(C(C)=O)S(=O)(=O)c2cccs2)c2ccccc12,active: 4.9
4,COc1ccccc1N1CCN(C(c2ccccn2)c2nnnn2C2CCCCC2)CC1 (configuration not stated),-0.468
5,COc1cccc(N(C(=O)Cn2nnc(-c3ccc(C)o3)n2)C(C(=O)NC(C)(C)C)c2cccs2)c1 (configuration not stated),0.439
6,COc1ccc(/C=C/C(=O)NC(=S)NCCc2ccc(OC)c(OC)c2)cc1,-0.107
7,CCOC(=O)Cn1c2[n+](c3ccccc31)CC(O)CS2 (configuration not stated),-0.74
8,COc1cc(/C=C/C(=O)OCC(=O)Nc2cc(C(F)(F)F)ccc2N2CCOCC2)ccc1O,-0.338
9,CCc1ccc(/C(C)=N/Nc2cc(Cl)nc(C)n2)cc1,0.00666
10,Cc1ccc(-n2c(=O)c(C#N)cc3c(=O)n4cccc(C)c4nc32)cc1,-0.24
11,O=C(Oc1ccc(-c2cnc3ccccc3n2)cc1)c1ccc(Br)o1,0.266
12,S=C1NC2=C(C(c3ccc(Br)cc3)N1)N1CCC2CC1 (configuration not stated),-1
13,O=C(O)CCC(=O)Nc1ccc(Br)c(Cl)c1,0.0527
14,Cc1ccc(NC(=O)CC(O)(C(F)(F)F)C(F)(F)F)c(Br)c1,-0.368
15,CCOc1ccc(C(c2c(NC(=O)c3ccccc3)sc(C)c2C)N2CCN(CCO)CC2)cc1 (configuration not stated),0.101
16,COc1ccc(OC)c(S(=O)(=O)Nc2ccc(C)c(C)c2)c1,0.85
17,CCC1(C)Cc2c(sc3[nH]c(=O)[nH]c(=O)c23)CS1 (configuration not stated),-0.458
18,CCN(CC)C(=S)SCC(=O)c1ccccc1,-0.161
19,Cc1ccc(S(=O)(=O)Nc2ccc(=O)n(Cc3ccc(Cl)c(Cl)c3)c2)cc1,-0.0721
20,CCCNS(=O)(=O)c1ccc(Oc2ncc(C(F)(F)F)cc2Cl)cc1,-0.2
21,COc1ccccc1S(=O)(=O)Cc1ccc(C(=O)N2CCOCC2)o1,0.828
22,CCC1(c2ccccc2)NC(=O)N(CC(=O)Nc2cccc(C#N)c2)C1=O (configuration not stated),-0.319

row,Structure (SMILES),z-score
1,O=c1cc(N2CCC(Cc3ccccc3)CC2)[nH]c(=O)n1C1CCCCC1,0.171
2,COC(=O)C(C(=O)NCC1CCCO1)C1CCCCCC1 (configuration not stated),0.131
3,Cc1cccc(N2C(=O)C3C4C=CC(C4)C3C2=O)c1 (configuration not stated),-0.78
4,COCCCn1c(SCc2ccc(OC)cc2)nc2cc(OC)c(OC)cc2c1=N,-0.293
5,CCCn1c(=O)n(C)c(=O)c2c(SCc3cc(C(C)=O)ccc3OCC)nc(C3CC3)nc21,-0.12
6,Cc1cccc(/C(N)=N/OC(=O)CCc2ccccc2)c1,-0.12
7,O=C(NCc1ccc(Cl)cc1Cl)C1CCN(S(=O)(=O)c2ccc3c(c2)OCCCO3)CC1,-0.505
8,Cc1ccc(NC2=NCCC2)cc1Cl,-0.0067
9,CCc1c(C)c(C#N)c2nc3ccccc3n2c1NCc1ccco1,active: -3.28
10,Cc1cccc(S(=O)(=O)Nc2ccc(C)c3c2OC(C)(C)C3)c1,0.191
11,COC(=O)c1ccc(-c2nc3cc(Cl)c(N)cc3s2)cc1,-0.0315
12,Fc1ccccc1CNc1ccc(Cl)cc1,-0.159
13,COc1ccc(-c2nnc(NC(=O)c3cc(Cl)ccc3Cl)o2)cc1,1.02
14,COc1ccccc1N1C(=O)c2ccccc2NC1c1ccncc1 (configuration not stated),0.101
15,O=C(Nc1ccccc1C(F)(F)F)c1cc(S(=O)(=O)N2CCOCC2)ccc1F,-0.0485
16,O=C(Nc1ccc(CN2CCOCC2)cc1)c1ccc(-c2cccc(Cl)c2)o1,0.138
17,O=C(COC(=O)c1ccc2c(c1)OCCO2)NCCC1=CCCCC1,-0.393
18,CCOc1ccc(C2CC(c3cccc(OC)c3)Nc3ncnn32)cc1 (configuration not stated),-0.715
19,CC(C)Oc1ccc(C(=O)Nc2cc(=O)n(C)c(=O)n2C)cc1,0.193
20,COc1ccccc1-c1noc(CCC(=O)Nc2cccc(C)c2)n1,-0.323
21,N#Cc1c(-c2ccccc2F)cc(C2CC2)nc1SCC(=O)c1cccs1,-0.51
22,CCOC(=O)C1CN(S(=O)(=O)c2ccc(F)cc2)C1,-0.587

row,Structure (SMILES),z-score
1,Cc1cc(N2CCOCC2)nc(SCc2ccc(Cl)cc2Cl)n1,0.475
2,CC1(C)Cc2noc(N)c2C(C)(C)N1OC(=O)c1ccccc1,0.169
3,COc1ccccc1N(Cc1ccccc1)S(=O)(=O)c1cccc(C(=O)Nc2ccc(C(C)=O)cc2)c1,-0.284
4,CC(C)OC(=O)c1c2nc3ccccc3nc2n2c1[nH]c(=O)c1ccccc12,active: 16.9
5,CCN(CC)c1ccc(NC(=O)CN2C(=O)CC(C)(C)S(=O)(=O)c3ccccc32)c(C)c1,-0.103
6,CCn1c(=NC(=O)c2ccc(N3C(=O)CCC3=O)cc2)sc2c(OC)ccc(OC)c21,-0.536
7,O=C(CN1C(=O)C2(OCCO2)c2ccccc21)c1ccc(Cl)cc1,-0.162
8,COc1cc(C(=O)Nc2ccc(N(C)C)cc2)cc(OC)c1OC,0.211
9,CCn1c(COc2cccc(OC)c2)nnc1SCC(=O)Nc1cccc(OC)c1,-1.16
10,CC1(C)CC(=O)C2=C(C1)Nc1[nH]c(=S)[nH]c(=O)c1C2c1ccccc1 (configuration not stated),-0.254
11,O=C1C(C=NCc2cccnc2)=C(O)c2ccccc21,0.0333
12,O=C(Nc1ccc(S(=O)(=O)Nc2ncccn2)cc1)c1cccnc1,-0.236
13,O=c1[nH]c(C(F)(F)F)nc2c1nnn2Cc1ccccc1F,-1.13
14,CCN(CC)CCCNc1cc2n(c(=O)n1)CCc1cc(OC)c(OC)cc1-2,-1.06
15,O=C(O)CCCNS(=O)(=O)c1cccc2nsnc12,-0.542
16,Cc1cccc(/C=C2/SC(=O)N(Cc3ccccc3Cl)C2=O)n1,-0.00258
17,CCCOc1c(Br)cc(/C=N/O)cc1OC,-0.858
18,COc1ccc(/C=C\C(=O)c2c(O)ccc3c(C)cc(=O)oc23)cc1OC,-0.676
19,COc1cc(C(=O)Nc2ccc(-n3cnnn3)c(C)c2)cc(OC)c1OC,0.356
